Measurements as given in PubChem BioAssay AID504832 (National Center for Advancing Translational Sciences (NCATS), 2011).
The campaign covered roughly 310,000 compounds. About 18,000 (5.8%) were called active. The inconclusive results got no clear call from the source; some entries with a clear call stand among them for comparison. The call rests on the fitted dose curve; in most records, active means well fitted inhibition curve with a large enough effect; inconclusive means small, poorly fitted or top-dose-only effect, or another doubt; inactive means no such curve, though single readings can be large or run the other way. No potency is given beside an inconclusive call; the fits are too rough.

Test: Primary qHTS for delayed death inhibitors of the malarial parasite plastid, 48 hour incubation
Conditions: P. falciparum luciferase growth in erythrocytes; series mostly up to 28.7 µM
How it was run: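 Cell-based growth assay: transgenic P. falciparum expressing firefly luciferase, cultured in red cells within RPMI 1640 containing 0.5% w/v Albumax, 24 mM bicarbonate and gentamycin. A drop in luciferase activity indicates inhibition.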
Potency means the concentration at half of the fitted maximal effect; tags describe the fitted curve by direction and shape.

| SMILES | Potency |
| --- | --- |
| CCc1cc2cc(C)ccc2nc1SCC(=O)Nc1cc(C)on1 | inconclusive [inhibitor, partial curve, poor fit] |
| O=C(CN(Cc1ccco1)C(=O)c1ccc(Cl)cc1)Nc1ccc(Cl)c(Cl)c1 | inactive |
| CC(C)c1onc(C(=O)Nc2cccc(Cl)c2)c1[N+](=O)[O-] | inconclusive [inhibitor, single point] |
| CCCC(c1nnnn1C1CCCC1)N1CCN(C(=O)c2ccco2)CC1 (centres undefined) | active: 11.7 µM |
| CCCCOC(=O)Nc1nc(CC(=O)OCC)cs1 | inactive |
| Cc1c(Cl)cccc1NC(=O)CC1Oc2ccccc2NC1=O (centres undefined) | inactive |
| O=[N+]([O-])c1ccccc1CNCCCCO | inactive |
| CCC1Oc2ccc(C)cc2N(CC(=O)N2CCN(c3ccc(F)cc3)CC2)C1=O (centres undefined) | inconclusive [inhibitor, single point] |
| COC(=O)CC1C(=O)NCCN1C(=O)CSc1nc2ccccc2o1 (centres undefined) | inactive |
| COc1cc(CO)c(OC)c([N+](=O)[O-])c1 | inactive |
| N#Cc1c(N)nc(SCc2ccncc2)c(C#N)c1-c1cccs1 | inconclusive [inhibitor, single point] |
| Cc1ccc(NC(=O)c2cccc(C(=O)Nc3ccc(C)c(C)c3)n2)cc1C | inconclusive [inhibitor, partial curve, poor fit] |
| O=C1C=C(c2cccc(Cl)c2)C[C@@H](c2ccc(F)cc2)C1 | inconclusive [inhibitor, single point] |
| Cc1ccccc1C(=O)NCCNc1ccc([N+](=O)[O-])cc1 | inconclusive [inhibitor, single point] |
| CCCNC(=O)NNC(=O)c1cc(-c2ccc3c(c2)OCO3)nc2ccccc12 | inconclusive [inhibitor, single point] |
| CCN1C(=O)c2ccccc2S(=O)c2ccc(C(=O)NCc3ccc(OC)cc3)cc21 (centres undefined) | inconclusive [inhibitor, partial curve] |
| O=C(NC(NC(=S)N1CCOCC1)C(Cl)(Cl)Cl)c1cccc2ccccc12 (centres undefined) | active: 2.94 µM |
| Cc1onc(-c2ccccc2Cl)c1C(=O)NCc1nnnn1-c1ccc(F)cc1 | inconclusive [inhibitor, single point] |
| Cc1[nH]c(=O)[nH]c(=O)c1S(=O)(=O)Nc1ccc(F)cc1F | inactive |
| CCOC(=O)N1CCN(C(=O)C(=O)c2cn(CC(=O)N3CCCCCC3)c3ccccc23)CC1 | active: 11.7 µM |
| CCN1C(=O)[C@H]2[C@@H](c3ccc(C)cc3)N3C(=O)N(c4cccc(Br)c4)C(=O)[C@@]3(CC)[C@H]2C1=O | inconclusive [inhibitor, single point] |
| CCN(CC)S(=O)(=O)c1ccc(N2CCOCC2)c(NC(=O)c2cc([N+](=O)[O-])ccc2Cl)c1 | inconclusive [inhibitor, single point] |
| CCCCC1=CC2=C(c3ccco3)C(=O)C(C)(OC(=O)c3ccc(OC)cc3)C(=O)C2=CN1Cc1ccccc1 (centres undefined) | inconclusive [inhibitor, single point] |

| SMILES | Potency |
| --- | --- |
| O=C(Nc1ccc(F)cc1)N(CCCN1CCOCC1)Cc1cc2cc3c(cc2[nH]c1=O)OCCO3 | active: 10.4 µM |
| COc1ccccc1C(=O)NCCC(=O)NCC(c1ccccc1OC)N1CCCC1 (centres undefined) | inconclusive [inhibitor, single point] |
| O=C(NC1CCN(S(=O)(=O)c2cccc(F)c2)CC1)c1ccc(F)cc1 | inconclusive [inhibitor, full curve, poor fit] |
| NC(=O)c1sc2nc3c(c(-c4ccccc4)c2c1N)CCC3 | inconclusive [inhibitor, partial curve, poor fit] |
| O=S(N1CCc2ccccc21)C12CC3CC(CC(C3)C1)C2 (centres undefined) | inconclusive [inhibitor, single point] |
| O=C(O)C1CCCN1C(=O)C1CCN(S(=O)(=O)c2cccc(C(F)(F)F)c2)CC1 (centres undefined) | inconclusive [inhibitor, single point] |
| CC(=O)OCC1OC(n2ccc3ccccc32)C(OC(C)=O)C(OC(C)=O)C1OC(C)=O (centres undefined) | inactive |
| CN1Cc2cc(C(=O)c3cc(Cl)cc(CSc4ncccn4)c3O)cnc2NC1=O | inactive |
| CCc1ccc(NC(=O)C2CCN(S(=O)(=O)c3cnc[nH]3)CC2)cc1 | inconclusive [inhibitor, single point] |
| COCCNc1c2c(nc3c(-c4ccccc4)c(C)nn13)CCCC2 | inconclusive [inhibitor, single point] |
| O=C(Cc1c[nH]c2ccccc12)Nc1cccc(S(=O)(=O)N2CCCCC2)c1 | inconclusive [inhibitor, single point] |
| CCN1CCN(C(=O)c2cc(-c3ccc(Cl)s3)nc3ccccc23)CC1 | inconclusive [inhibitor, single point] |
| CCCCc1nnc(NC(=O)C2CC(=O)N(Cc3ccccc3)C2)s1 (centres undefined) | inconclusive [inhibitor, single point] |
| CCC(CC)c1nnc(NC(=O)c2ccc3ccccc3n2)s1 | inactive |
| CC(C)(C)NS(=O)(=O)c1ccc2nc(NC(=O)c3ccc(N4C(=O)CCC4=O)cc3)sc2c1 | inconclusive [inhibitor, single point] |
| Cc1cc(OCC(=O)Nc2ccccc2N2CCCC2)ccc1C(C)C | inconclusive [inhibitor, single point] |
| CN(C)S(=O)(=O)c1cccc(NC(=O)COC(=O)CCSc2ccc(Cl)cc2)c1 | inactive |
| C=CCC(C#Cc1ccccc1)[N+](C)(C)CC=C (centres undefined) | inconclusive [inhibitor, full curve] |
| Cc1ccc(OCC(=O)Nc2cc(-c3nn4c(C)nnc4s3)ccc2C)cc1 | inconclusive [inhibitor, single point] |
| Cc1[nH]c2ccccc2c1C(=O)/C=C\c1ccccc1Cl | inactive |
| O=C1COc2ccc(C(=O)c3ccccc3C(=O)NCc3ccccc3)cc2N1 | inconclusive [inhibitor, single point] |
| Cc1c(CN2CCCC(C(=O)c3cccc(OC(C)C)c3)C2)c(=O)n(-c2ccccc2)n1C (centres undefined) | inactive |
| CCCOc1ccc(C(=O)CCC(=O)NNC(=O)c2cccs2)cc1 | inactive |

| SMILES | Potency |
| --- | --- |
| O=C(NCC(c1ccco1)N1CCN(c2ccc(F)cc2)CC1)C1CCCCC1 (centres undefined) | inconclusive [inhibitor, partial curve, poor fit] |
| Cc1ncsc1C(=O)N1N=C2/C(=C/c3ccc(N4CCOCC4)cc3)CCCC2C1c1ccc(N2CCOCC2)cc1 (centres undefined) | inconclusive [inhibitor, full curve, poor fit] |
| Cc1nccn1CC(=O)N/N=C/c1cccs1 | inactive |
| Cc1ccc2nc(-c3ccc(NC(=O)CSc4nccc(=O)[nH]4)cc3)sc2c1 | inactive |
| O=C(NCC(=O)N1CCN(c2ccccc2O)CC1)C1CCCCC1 | inconclusive [inhibitor, single point] |
| COc1ccc(C(=O)CSC2=C(C#N)C3(CCCCC3)C(C#N)=C(N)N2)cc1 | active: 11.7 µM |
| CCOC(=O)C1=C(C)NC(C)=C(C(=O)OCC)C1c1ccc(C)o1 | inconclusive [inhibitor, single point] |
| O=C(CCNS(=O)(=O)c1ccc(OC(F)(F)F)cc1)NCCc1c[nH]c2ccccc12 | inconclusive [inhibitor, single point] |
| COc1ccc(NC(=O)O/N=C2/CCCc3ccc(OC)cc32)cc1 | inactive |
| CCOC(=O)C1=NN(c2ccccc2C)C2=NC(C)=C(C(=O)OC)C(c3cccs3)N12 (centres undefined) | inactive |
| Cc1ccc(C)c(CN2CCC(n3nccc3NC(=O)CCCc3ccccc3)CC2)c1 | inconclusive [inhibitor, single point] |
| CN(CC(=O)Nc1ccc(Cl)c(C(F)(F)F)c1)C(=O)CC1Sc2ccccc2NC1=O (centres undefined) | inconclusive [inhibitor, single point] |
| CCOc1ccc(S(=O)(=O)N2CCN(C(=O)c3cc([N+](=O)[O-])ccc3N3CCOCC3)CC2)cc1 | inconclusive [inhibitor, single point] |
| COc1ccc(OC)c(Nc2ncnc3ccccc23)c1 | inactive |
| O=C(CN1C(=O)NC2(CCCCC2)C1=O)N1CCN(S(=O)(=O)c2cccc([N+](=O)[O-])c2)CC1 | inactive |
| NC(=O)N/N=C\c1cc(Br)ccc1O | inactive |
| CC1CC(C)CN(C(=O)c2cc3ccccc3o2)C1 (centres undefined) | inconclusive [inhibitor, single point] |
| CN(CC(=O)Nc1cccc(F)c1)C(=O)c1ccccc1OCC(=O)Nc1cccc(C(F)(F)F)c1 | inconclusive [inhibitor, single point] |
| CC(C)(C)OC(=O)N1CCC(NC(=O)c2[nH]cnc2C(=O)N[C@@H](Cc2ccccc2)C(=O)OCc2ccccc2)CC1 | active: 0.928 µM |
| COc1ccc(Cl)cc1C(=O)Nc1ccccc1N1CCN(C(=O)C(C)C)CC1 | active: 5.86 µM |
| Cc1ccccc1N(CC(=O)NCCSc1ccccn1)S(=O)(=O)c1ccccc1 | inconclusive [inhibitor, full curve, poor fit] |
| COc1ccccc1N1CCN(Cc2ccc(C(=O)O)cc2)CC1 | inactive |
| CCOC(=O)N1CCN(S(=O)(=O)N2CCCC(C(=O)NCCc3ccc(OC)c(OC)c3)C2)CC1 (centres undefined) | inactive |
